# Columns and labels:
# [1] = test system: gray mold fungi (Botrytis cinerea); assay: Test Example B: tomato gray mold, spray treatment of tomato plants; settings: tomato gray mold, spray treatment
# [2] = test system: wheat brown rust fungi (Puccinia recondita); assay: Test Example E: wheat brown rust, spray treatment of wheat plants; type: in vivo; settings: wheat brown rust, spray treatment
# [3] = test system: grape downy mildew fungus (Plasmopara viticola); assay: Test Example G: grape downy mildew, spray treatment of grape plants; settings: grape downy mildew, 250 ppm spray, 7 to 10 days after inoculation
# [4] = test system: barley powdery mildew fungi (Blumeria graminis f. sp. hordei); assay: Test Example D: barley powdery mildew, spray treatment of barley plants; settings: barley powdery mildew, spray treatment
# [5] = test system: cabbage Alternaria sooty spot fungi (Alternaia brassicicola); assay: Test Example C: cabbage Alternaria sooty spot, spray treatment of cabbage plants; type: in vivo; settings: cabbage Alternaria sooty spot, spray treatment
# Source text: [Test Example C] Cabbage Alternaria Sooty Spot
# Test plants (cabbage variety: Shikidori) were cultivated until the cotyledons extended after the sowing of seeds.
# <Control Value> Control value=100{1−(n/3)}
Compound,Test B control value [1],Test E control value [2],Test G control value [3],Test D control value [4],Test C control value [5]
Cc1cn(-c2ccccc2Cl)c(-c2ccccc2)c(C)c1=O [Compound 474],H (H shows the control value of more than 50%),H (H shows the control value of more than 50%),H (H shows the control value of more than 50%),H (H shows the control value of more than 50%),H (H shows the control value of more than 50%)
CCc1c(-c2ccccc2)n(-c2ccccc2C)cc(Br)c1=O [Compound 475],H (H shows the control value of more than 50%),H (H shows the control value of more than 50%),L (L shows the control value of 50% or less),L (L shows the control value of 50% or less),H (H shows the control value of more than 50%)
Cc1cn(-c2ccccc2C(F)(F)F)c(-c2c(F)cc(F)cc2F)c(C)c1=O [Compound 476],H (H shows the control value of more than 50%),H (H shows the control value of more than 50%),L (L shows the control value of 50% or less),H (H shows the control value of more than 50%),H (H shows the control value of more than 50%)
COc1cc(F)c(-c2c(C)c(=O)c(C)cn2-c2cccc(C)c2C)c(F)c1 [Compound 477],H (H shows the control value of more than 50%),H (H shows the control value of more than 50%),H (H shows the control value of more than 50%),H (H shows the control value of more than 50%),H (H shows the control value of more than 50%)
Cc1cccc(-n2cc(C)c(=O)c(C)c2-c2c(F)cccc2F)c1C [Compound 478],H (H shows the control value of more than 50%),H (H shows the control value of more than 50%),H (H shows the control value of more than 50%),H (H shows the control value of more than 50%),H (H shows the control value of more than 50%)
Cc1c(F)cccc1-n1cc(C)c(=O)c(C)c1-c1c(F)cccc1F [Compound 479],H (H shows the control value of more than 50%),H (H shows the control value of more than 50%),H (H shows the control value of more than 50%),H (H shows the control value of more than 50%),H (H shows the control value of more than 50%)
Cc1c(Br)cccc1-n1cc(C)c(=O)c(C)c1-c1c(F)cc(F)cc1F [Compound 480],H (H shows the control value of more than 50%),H (H shows the control value of more than 50%),H (H shows the control value of more than 50%),H (H shows the control value of more than 50%),H (H shows the control value of more than 50%)
COc1cccc(-n2cc(C)c(=O)c(C)c2-c2c(F)cc(F)cc2F)c1C [Compound 481],H (H shows the control value of more than 50%),H (H shows the control value of more than 50%),H (H shows the control value of more than 50%),H (H shows the control value of more than 50%),H (H shows the control value of more than 50%)
Cc1cccc(-n2cc(C)c(=O)c(C)c2-c2ccccc2)c1C [Compound 482],H (H shows the control value of more than 50%),H (H shows the control value of more than 50%),L (L shows the control value of 50% or less),L (L shows the control value of 50% or less),H (H shows the control value of more than 50%)
Cc1c(F)cccc1-n1cc(C)c(=O)c(C)c1-c1ccccc1 [Compound 483],H (H shows the control value of more than 50%),H (H shows the control value of more than 50%),H (H shows the control value of more than 50%),L (L shows the control value of 50% or less),H (H shows the control value of more than 50%)
Cc1c(Cl)cccc1-n1cc(C)c(=O)c(C)c1-c1ccccc1 [Compound 484],H (H shows the control value of more than 50%),H (H shows the control value of more than 50%),L (L shows the control value of 50% or less),H (H shows the control value of more than 50%),H (H shows the control value of more than 50%)
CCc1ccccc1-n1cc(C)c(=O)c(C)c1-c1c(F)cccc1F [Compound 485],H (H shows the control value of more than 50%),H (H shows the control value of more than 50%),L (L shows the control value of 50% or less),L (L shows the control value of 50% or less),H (H shows the control value of more than 50%)
Cc1ccc(Cl)cc1-n1cc(C)c(=O)c(C)c1-c1c(F)cccc1F [Compound 486],H (H shows the control value of more than 50%),H (H shows the control value of more than 50%),L (L shows the control value of 50% or less),H (H shows the control value of more than 50%),L (L shows the control value of 50% or less)
CCc1ccccc1-n1cc(Br)c(=O)c(CC)c1-c1c(F)cc(F)cc1F [Compound 488],H (H shows the control value of more than 50%),H (H shows the control value of more than 50%),H (H shows the control value of more than 50%),H (H shows the control value of more than 50%),H (H shows the control value of more than 50%)
CCc1ccccc1-n1cc(C)c(=O)c(CC)c1-c1c(F)cc(F)cc1F [Compound 489],H (H shows the control value of more than 50%),H (H shows the control value of more than 50%),H (H shows the control value of more than 50%),H (H shows the control value of more than 50%),H (H shows the control value of more than 50%)
CCc1c(-c2c(F)cc(F)cc2F)n(-c2ccccc2Cl)cc(C)c1=O [Compound 491],H (H shows the control value of more than 50%),H (H shows the control value of more than 50%),L (L shows the control value of 50% or less),H (H shows the control value of more than 50%),H (H shows the control value of more than 50%)
CCc1c(-c2c(F)cc(F)cc2F)n(-c2ccccc2)cc(Br)c1=O [Compound 492],H (H shows the control value of more than 50%),H (H shows the control value of more than 50%),L (L shows the control value of 50% or less),L (L shows the control value of 50% or less),H (H shows the control value of more than 50%)
CCc1c(-c2c(F)cc(F)cc2F)n(-c2ccccc2)cc(C)c1=O [Compound 493],H (H shows the control value of more than 50%),H (H shows the control value of more than 50%),L (L shows the control value of 50% or less),H (H shows the control value of more than 50%),H (H shows the control value of more than 50%)
Cc1c(Cl)cccc1-n1cc(C)c(=O)c(C)c1-c1c(F)cccc1F [Compound 494],H (H shows the control value of more than 50%),H (H shows the control value of more than 50%),L (L shows the control value of 50% or less),H (H shows the control value of more than 50%),H (H shows the control value of more than 50%)
Cc1c(Br)cccc1-n1cc(C)c(=O)c(C)c1-c1c(F)cccc1F [Compound 496],H (H shows the control value of more than 50%),H (H shows the control value of more than 50%),L (L shows the control value of 50% or less),H (H shows the control value of more than 50%),H (H shows the control value of more than 50%)
CCc1c(-c2c(F)cccc2F)n(-c2cccc(C)c2C)cc(C)c1=O [Compound 497],H (H shows the control value of more than 50%),H (H shows the control value of more than 50%),L (L shows the control value of 50% or less),L (L shows the control value of 50% or less),H (H shows the control value of more than 50%)
CCc1ccccc1-n1cc(Br)c(=O)c(CC)c1-c1ccccc1 [Compound 498],L (L shows the control value of 50% or less),L (L shows the control value of 50% or less),L (L shows the control value of 50% or less),L (L shows the control value of 50% or less),L (L shows the control value of 50% or less)

# From patent publication US11000038B2, “Pyridone compounds and agricultural and horticultural fungicides containing the same as active ingredients” (priority 2017, dated 2021)
